Data published in patent EP4796128A1 (Celltrion, Inc., dated 2025).

Experiments:
recombinant human c-Met [1] = biological target: T1, recombinant human c-Met (human, UniProt P08581 25-932); assay: ELISA on recombinant human c-Met
T1 construct: Recombinant protein used in ELISA and BLI; also called human c-MET protein; human-derived c-Met protein

[2] = biological target: c-Met protein expressed on the surface of tumor cells (UniProt P08581); assay: cell-based or functional assay
recombinant human c-Met [3] = biological target: T1, recombinant human c-Met; assay: BLI, ADC as loading sample, human c-Met
[4] = biological target: T2, monkey c-Met (cynomolgus c-Met) (monkey (cynomolgus), UniProt A0A2K5UM36 25-932); assay: ELISA on monkey (cynomolgus) c-Met
T2 construct: Recombinant protein used in ELISA and BLI; also called monkey-derived c-MET protein; recombinant monkey c-Met

[5] = biological target: T2, monkey c-Met (cynomolgus c-Met); assay: BLI, ADC as loading sample, monkey c-Met

T1 sequence (P08581 25-932 limits assumed): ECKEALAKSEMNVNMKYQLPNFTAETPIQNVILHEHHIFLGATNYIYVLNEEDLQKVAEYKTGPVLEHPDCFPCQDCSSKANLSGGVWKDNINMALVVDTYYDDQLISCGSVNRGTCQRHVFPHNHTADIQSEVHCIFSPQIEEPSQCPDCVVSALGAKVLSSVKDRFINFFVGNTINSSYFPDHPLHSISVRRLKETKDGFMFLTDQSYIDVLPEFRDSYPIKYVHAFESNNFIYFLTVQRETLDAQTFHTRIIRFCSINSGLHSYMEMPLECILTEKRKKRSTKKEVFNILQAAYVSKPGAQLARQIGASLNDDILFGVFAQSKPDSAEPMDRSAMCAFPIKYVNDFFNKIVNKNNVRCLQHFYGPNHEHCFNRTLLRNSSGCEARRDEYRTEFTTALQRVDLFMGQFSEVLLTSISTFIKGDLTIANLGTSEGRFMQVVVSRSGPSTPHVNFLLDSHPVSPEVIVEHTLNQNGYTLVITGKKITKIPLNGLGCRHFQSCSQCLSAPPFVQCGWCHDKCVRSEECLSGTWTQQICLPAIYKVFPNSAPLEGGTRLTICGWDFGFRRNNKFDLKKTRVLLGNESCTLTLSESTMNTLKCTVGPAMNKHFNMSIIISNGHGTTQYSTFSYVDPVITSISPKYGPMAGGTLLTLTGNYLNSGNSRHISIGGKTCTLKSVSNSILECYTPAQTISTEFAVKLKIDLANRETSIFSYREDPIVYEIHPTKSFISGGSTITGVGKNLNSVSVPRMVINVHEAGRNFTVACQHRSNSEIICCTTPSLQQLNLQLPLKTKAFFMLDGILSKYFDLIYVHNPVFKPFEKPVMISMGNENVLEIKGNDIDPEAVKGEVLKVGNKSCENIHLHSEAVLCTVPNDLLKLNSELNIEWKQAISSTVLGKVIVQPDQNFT

EC50 (recombinant human c-Met [1]): 120 pM
Kd (recombinant human c-Met [3]): 774 pM
koff (recombinant human c-Met [3]): 6.29e-05 s⁻¹
kon (recombinant human c-Met [3]): 81300 M⁻¹ s⁻¹
EC50 [4]: 110 pM
Kd [5]: 917 pM
koff [5]: 9.17e-05 s⁻¹
kon [5]: 100000 M⁻¹ s⁻¹
B1: M01-PBX-7016 (Example 3), anti-c-Met antibody-drug conjugate (other)
heavy: QVQLVQSGAEVKKPGASVKVSCKASGYIFTAYTMHWVRQAPGQGLEWMGWIKPNNGLANYAQKFQGRVTMTRDTSISTAYMELSRLRSDDTAVYYCARSEITTEFDYWGQGTLVTVSS[human IgG1 constant region not spelt out]
light: DIVMTQSPDSLAVSLGERATINCKSSESVDSYANSFLHWYQQKPGQPPKLLIYRASTRESGVPDRFSGSGSGTDFTLTISSLQAEDVAVYYCQQSKEDPLTFGGGTKVEIKRTVAAPSVFIFPPSDEQLKSGTASVVCLLNNFYPREAKVQWKVDNALQSGNSQESVTEQDSKDSTYSLSSTLTLSKADYEKHKVYACEVTHQGLSSPVTKSFNRGEC
modifications: mc-GGFG-PBX-7016 linker-payload on a cysteine thiol made by TCEP reduction of the disulfides; 1 drug on each light chain (D1) by LC-MS; position not given; mc-GGFG-PBX-7016 linker-payload on cysteine thiols made by TCEP reduction of the disulfides; 3 drugs on each heavy chain (D3) by LC-MS; positions not given
notes: also called ADC (M01-PBX-7016)
IC50, in-vitro cell viability (CellTiter-Glo, 6 days), HT29 cells [2]: 8700 pM
IC50, in-vitro cell viability (CellTiter-Glo, 6 days), NCI-H1573 cells [2]: 6100 pM
IC50, in-vitro cell viability (CellTiter-Glo, 6 days), SNU-5 cells [2]: 110 pM
